Reference: PubChem BioAssay AID1347428 (National Center for Advancing Translational Sciences (NCATS), 2020)
Where “and” joins values, the source holds several entries; their conditions need not be identical. Identical values can stand only once. Out of some 91,000 compounds screened, about 290 (0.32%) were called active. Inconclusive results, whose numbers are uncertain, are shown with a selection of clear calls. Calls follow the shape of the dose curve; as a rule, active = well fitted inhibition curve with a large enough effect; inconclusive = small, poorly fitted or top-dose-only effect; inactive = no such curve, though single readings can be large or run the other way. Potencies beside an inconclusive call are fits to weak or partial responses and may not hold up.
% is scaled to controls: 0 for no effect and ±100 for the full control effect; potency is read from the fitted curve at half-maximal effect; tags tell the direction and shape of the fitted curve.
Also: nearly all actives have a fitted effect of over 25% in size.

These compounds were tested against Single-stranded DNA cytosine deaminase (Homo sapiens) (UniProt Q9GZX7) (assay: Primary qHTS assay for inhibitors of Activation Induced Cytidine Deaminase (AID): AID signal). Settings: AID deamination FRET fluorescence, UDG-coupled, 4 h; activity change, negative = inhibition: at 115 µM (top of the series).
Chain of UniProt Q9GZX7 (Q9GZX7 whole entry, looked up): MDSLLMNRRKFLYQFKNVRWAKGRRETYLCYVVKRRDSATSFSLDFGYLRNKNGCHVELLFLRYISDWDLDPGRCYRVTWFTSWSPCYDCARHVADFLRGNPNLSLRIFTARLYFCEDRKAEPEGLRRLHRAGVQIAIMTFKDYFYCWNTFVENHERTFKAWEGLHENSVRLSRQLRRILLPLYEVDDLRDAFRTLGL
For CCC1CN(C(=O)N2CCC(C(=O)N3CCN(c4ccc(F)cc4)CC3)CC2)c2ccccc2O1 (centres undefined), the Potency was inconclusive: 79.4 µM [inhibitor, partial curve, poor fit]. For CC1CCN(S(=O)(=O)c2ccc3c(ccn3CC(=O)NCc3ccc(N(C)C)cc3)c2)CC1, the Potency was inconclusive: 35.5 µM [inhibitor, single point]. CC(C)c1ccc(S(=O)(=O)c2nnn3c2nc(N2CCOCC2)c2sccc23)cc1 was tested, and the Potency was inconclusive: 25.1 µM [inhibitor, partial curve, poor fit] and inconclusive: 15.8 µM [inhibitor, full curve, poor fit]. With COCCNC(=O)c1ccc2c(c1)N(Cc1ccc(C(F)(F)F)cc1)C(=O)c1ccccc1S2 the Potency was inconclusive: 44.7 µM [inhibitor, partial curve, poor fit]. For Cc1cccc(-n2c(=O)c3c(c4cc(C)ccc4n3C)n(CC(=O)Nc3ccccc3Cl)c2=O)c1, the Potency was inconclusive: 2.82 µM [inhibitor, partial curve, poor fit]. In the case of Cc1cccc(OCCCSc2nc(-c3ccc(C(C)(C)C)cc3)nc3cc(=O)[nH]n23)c1C, the Potency is reported as inconclusive: 56.2 µM [inhibitor, partial curve, poor fit]. For O=C(c1ccc(CS(=O)c2ccccc2Cl)o1)N1CCN(c2cccc(C(F)(F)F)c2)CC1 (centres undefined), the Potency was inconclusive: 44.7 µM [inhibitor, partial curve, poor fit]. For O=C(NCCCCc1ccccc1)c1nn(-c2ccccc2F)nc1CO, the Potency was inconclusive: 44.7 µM [inhibitor, partial curve, poor fit]. COc1ccc(-c2cn(-c3ccc(C)cc3)c(S(=O)(=O)CC(=O)Nc3ccccc3)n2)cc1 was tested, and the Potency was inconclusive: 28.2 µM [inhibitor, full curve, poor fit]. In the case of O=C(c1cccs1)c1cn(CCOc2ccc(F)cc2)c2ccccc12, the Potency is reported as inconclusive: 22.4 µM [inhibitor, partial curve, poor fit]. In the case of Cc1[nH]c2ccccc2c1C(c1ccncc1)c1c(C)[nH]c2ccccc12, the “activity change, negative = inhibition” value is reported as inactive: 96.1%. In the case of COc1ccc(Cc2nc(C)c(-c3ccccc3)s2)cc1OC, the “activity change, negative = inhibition” value is reported as inactive: -1.28%. O=S(=O)(Nc1nc2ccccc2nc1Nc1cccc(F)c1)c1cccc(Cl)c1 was tested, and the Potency was inconclusive: 70.8 µM [inhibitor, single point]. For COc1ccc(CNC(=O)C2CCN(S(=O)(=O)c3c(C)noc3/C=C/c3cccs3)CC2)cc1, the Potency was inconclusive: 100 µM [inhibitor, single point]. In the case of O=C(NCc1cccnc1)C1CCN(Cc2cc3ccccc3n2Cc2ccccc2)CC1, the Potency is reported as inconclusive: 44.7 µM [inhibitor, partial curve, poor fit]. For CCOc1ccc(N(C(=O)c2ccc(OC)cc2)S(=O)(=O)c2ccc3c(c2)n(C)c(=O)n3C)cc1, the Potency was inconclusive: 89.1 µM [inhibitor, partial curve, poor fit]. With COc1cccc(/C=C2/C(=O)c3ccccc3OC2c2ccccc2)c1 (centres undefined) the Potency was inconclusive: 31.6 µM [inhibitor, partial curve, poor fit]. Cc1cccn2c(=O)c3cc(C(=O)NC(C)c4ccccc4)c(=N)n(CCOCCO)c3nc12 (centres undefined) was tested, and the “activity change, negative = inhibition” value was inactive: 5.12%. In the case of COc1ccc2c(c1)Cc1sc(NC(=O)c3ccc(Cl)cc3)nc1-2, the Potency is reported as active: 31.6 µM. N#C/C(=C\c1ccc(-c2ccc(Cl)c(C(=O)O)c2)o1)c1nc2ccccc2[nH]1 was tested, and the Potency was active: 28.2 µM. In the case of COc1ccc(-c2nnc(SCC(=O)c3ccc([N+](=O)[O-])cc3)o2)cc1OC, the Potency is reported as inconclusive: 89.1 µM [inhibitor, single point]. In the case of COc1ccccc1Cc1nc2ccccc2nc1SCC(=O)N1CCCc2ccccc21, the Potency is reported as inconclusive: 11.2 µM [inhibitor, full curve, poor fit]. With CCc1ccc(CCC(=O)NC)cc1 the “activity change, negative = inhibition” value was inactive: -3.77%. In the case of CC(C)C(=O)c1cc2c(cc1NC(=O)c1ccccc1F)OCCO2, the Potency is reported as inconclusive: 28.2 µM [inhibitor, partial curve, poor fit]. Oc1ccc(NCc2ccccc2OCc2ccccc2Cl)cc1 was tested, and the Potency was active: 31.6 µM. For N#CCc1ccccc1C(=O)OCC(=O)N1CCN(c2ccccc2)CC1, the “activity change, negative = inhibition” value was inactive: 2.14%. In the case of Cc1ccc(O)c(NC(=O)CCSc2nc(-c3ccco3)cc(C(F)(F)F)n2)c1, the “activity change, negative = inhibition” value is reported as inactive: -8.09% [at 57.5 µM]. In the case of O=C(CN1C(=O)C2(SCC(=O)N2c2ccc(Cl)cc2)c2ccccc21)NCCc1ccccc1 (centres undefined), the Potency is reported as inconclusive: 3.55 µM [inhibitor, full curve, poor fit]. For Cc1ccc(Cn2c(C)c3cnn(CC(=O)N4CCN(c5ccc(F)cc5)CC4)c(=O)c3c2C)cc1, the Potency was inconclusive: 50.1 µM [inhibitor, partial curve, poor fit]. O=C(NCC(c1ccc2c(c1)OCO2)N1CCN(c2ccccc2)CC1)c1ccccc1 (centres undefined) was tested, and the Potency was inconclusive: 50.1 µM [inhibitor, partial curve, poor fit]. Cc1[nH]c2ccccc2c1C(=O)C(Cl)c1ccccc1 (centres undefined) was tested, and the “activity change, negative = inhibition” value was inactive: -0.239%. With Cc1ccccc1Nc1nnc(-c2ccc(C)c(S(=O)(=O)N3CCCCC3)c2)c2ccccc12 the Potency was inconclusive: 10 µM [inhibitor, partial curve, poor fit]. In the case of CCc1cccc(NC(=O)c2cccc3c2C(=O)N(C2CCCCC2)C3)c1, the Potency is reported as inconclusive: 28.2 µM [inhibitor, full curve, poor fit]. COc1nnc(-c2ccc(N3CCCCC3)c(NC(=O)c3ccccc3)c2)c2ccccc12 was tested, and the Potency was inconclusive: 63.1 µM [inhibitor, partial curve, poor fit]. With Cc1ccc(NC(=O)C2CCCN(S(=O)(=O)c3c(C)nn(C)c3C)C2)c(C)c1 (centres undefined) the Potency was inconclusive: 10 µM [inhibitor, partial curve, poor fit]. For O=S(=O)(Nc1cccc(-c2ccc(N3CCCC3)nn2)c1)c1cc(F)ccc1F, the Potency was inconclusive: 7.94 µM [inhibitor, full curve, poor fit]. C/C=C/C=C/C(=O)NC1CCCc2ccccc21 (centres undefined) was tested, and the “activity change, negative = inhibition” value was inactive: -3.64%. COc1ccc(-c2nc(SCC(=O)NCC3CCCO3)c(-c3ccc(C)cc3)[nH]2)cc1OC (centres undefined) was tested, and the Potency was inconclusive: 28.2 µM [inhibitor, partial curve, poor fit]. With O=C(NCc1ccc(Cl)cc1)c1cc2cccc3c2n1CCS3 the Potency was inconclusive: 15.8 µM [inhibitor, full curve, poor fit]. With CC1CCCN(C(=O)c2ccc(CSc3nc4ccncc4n3Cc3ccccc3)cc2)C1 (centres undefined) the Potency was inconclusive: 22.4 µM [inhibitor, full curve, poor fit]. In the case of CCCN1C(=O)C(NC(=O)CC)(C(F)(F)F)N=C1c1ccccc1 (centres undefined), the “activity change, negative = inhibition” value is reported as inactive: 4.6%. CCCCCCCCCCCCCCSCC(=O)O was tested, and the Potency was inconclusive: 56.2 µM [inhibitor, partial curve, poor fit]. For COc1cc(/C=C(\C#N)c2nc3ccccc3o2)cc(OC)c1OC, the “activity change, negative = inhibition” value was inactive: 3.52%. N#C/C(=C\C=C\c1ccco1)C(=O)NC1CCCCCC1 was tested, and the “activity change, negative = inhibition” value was inactive: 12.3%. With CCCCN(CC)CCCNC(=O)c1ccc2c(c1)N(Cc1ccc(C)cc1)C(=O)c1ccccc1S2 the Potency was inconclusive: 56.2 µM [inhibitor, partial curve, poor fit]. With COc1ccccc1CNC(=O)c1cc2cccc3c2n1CCS3 the Potency was inconclusive: 50.1 µM [inhibitor, partial curve, poor fit]. In the case of COc1cccc(C(=O)N2CCN(c3oc(-c4cccs4)nc3C#N)CC2)c1, the “activity change, negative = inhibition” value is reported as inactive: -11.9%. Cc1c(C(=O)N2CCCC2)oc2c1-c1nn(CC(=O)NCc3ccccc3F)cc1CC2 was tested, and the Potency was inconclusive: 79.4 µM [inhibitor, partial curve, poor fit]. In the case of Cc1ccc(C)c(-c2csc(Nc3ccc(S(=O)(=O)Nc4nc(C)cc(C)n4)cc3)n2)c1, the Potency is reported as inconclusive: 50.1 µM [inhibitor, partial curve, poor fit]. With CCC(CC)C(=O)N1CCc2cc(OC)c(OC)cc2C1COc1ccc2c(C)cc(=O)oc2c1 (centres undefined) the Potency was inconclusive: 79.4 µM [inhibitor, single point]. In the case of COc1cccc(-c2nc3cc(NC(=O)c4ccc(C)c([N+](=O)[O-])c4)ccc3o2)c1, the Potency is reported as inconclusive: 31.6 µM [inhibitor, partial curve]. In the case of CCOc1ccccc1N(CC)C(=O)Cn1ncc2c1-c1ccccc1OC2, the Potency is reported as inconclusive: 79.4 µM [inhibitor, partial curve, poor fit]. With CCOc1cccc(CC(=O)NCc2ccc3c(c2)CCN3C(=O)c2cccc(C)c2)c1OCC the Potency was inconclusive: 44.7 µM [inhibitor, partial curve, poor fit]. With CCN1C(=O)c2ccccc2Sc2ccc(NC(=O)Cc3ccc(OC)c(OC)c3)cc21 the Potency was inconclusive: 39.8 µM [inhibitor, single point]. For CCc1ccc(NC(=O)N2CCN(c3nnc(C)c4c(C)n(-c5ccc(Cl)cc5)nc34)CC2)cc1, the Potency was inconclusive: 79.4 µM [inhibitor, partial curve, poor fit]. In the case of CCOC(=O)/C=C/SC(S/C=C/C(=O)OCC)=C(C#N)C(N)=O, the “activity change, negative = inhibition” value is reported as inactive: -4.83%. With O=C(CS(=O)(=O)c1nc(-c2ccc(Cl)cc2)cn1-c1ccccc1)Nc1cccc(Cl)c1 the Potency was inconclusive: 56.2 µM [inhibitor, partial curve, poor fit]. O=C(NCc1ccccc1Cl)c1cc(-c2ccccc2)n[nH]1 was tested, and the Potency was inconclusive: 89.1 µM [inhibitor, single point]. For Cc1ccc(Cl)cc1NC(=O)Cn1nnc2sc3c(c2c1=O)CCC(C(C)(C)C)C3 (centres undefined), the Potency was inconclusive: 3.98 µM [inhibitor, full curve, poor fit].
